# Experimental data: the supplement of paper PMC8728848
# Some of the results follow.
# B1: Gal 2 (Canis lupus) (protein)
# chain: MSGKFEVMNMDMKLGGTLKIKGKIAGDADGFVINLGQGSDKLNLHFNPRFHESVIVCNSRNWGQEQRDKHMCFSPGSEVKFTVTFENDGFKVKLPDGHQLTFPNRLGHSHLSYLGVQGGLKVSSFKIE
# How the values were obtained:
# Assay in all cases: glycan array binding signal (z-score within array); higher = stronger binding
# Conditions in all cases: glycan notation: IUPAC condensed, linker removed
# [1] = biological target: Fuc(a1-3)[Gal(b1-4)]GlcNAc6S
# Method in brief: (§1)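 Columns mapping to the same glycan were averaged after glycan names were converted to IUPAC-condensed notation. The data come from 3228 arrays in the Consortium for Functional Glycomics database, limited to those with an available protein sequence. Binding is reported as a within-array Z-score averaged across arrays of one protein sequence and across linkers.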
# [2] = biological target: Fuc(a1-3)[Gal3S(b1-4)]GlcNAc
# Method in brief: as §1
# [3] = biological target: Fuc(a1-3)[Gal3S(b1-4)]GlcNAc6S
# Method in brief: as §1
# [4] = biological target: Fuc(a1-3)[GalNAc(b1-4)]GlcNAc
# Method in brief: as §1
# Fuc(a1-4)GlcNAc = biological target: Fuc(a1-4)GlcNAc
# Method in brief: as §1
# Fuc(b1-3)GlcNAc = biological target: Fuc(b1-3)GlcNAc
# Method in brief: as §1
# Gal(a1-2)Gal = biological target: Gal(a1-2)Gal
# Method in brief: as §1
# Gal(a1-3)Gal = biological target: Gal(a1-3)Gal
# Method in brief: as §1
# Gal(a1-3)Gal(b1-3)GlcNAc = biological target: Gal(a1-3)Gal(b1-3)GlcNAc
# Method in brief: as §1
# [5] = biological target: Gal(a1-3)Gal(b1-3)GlcNAc(b1-2)Man(a1-3)[Gal(a1-3)Gal(b1-3)GlcNAc(b1-2)Man(a1-6)]Man(b1-4)GlcNAc(b1-4)GlcNAc
# Method in brief: as §1
# [6] = biological target: Gal(a1-3)Gal(b1-3)GlcNAc(b1-3)GalNAc
# Method in brief: as §1
# [7] = biological target: Gal(a1-3)Gal(b1-3)[Fuc(a1-4)]GlcNAc(b1-2)Man(a1-3)[Gal(a1-3)Gal(b1-3)[Fuc(a1-4)]GlcNAc(b1-2)Man(a1-6)]Man(b1-4)GlcNAc(b1-4)GlcNAc
# Method in brief: as §1
# Gal(a1-3)Gal(b1-4)Glc = biological target: Gal(a1-3)Gal(b1-4)Glc
# Method in brief: as §1
# Gal(a1-3)Gal(b1-4)GlcNAc = biological target: Gal(a1-3)Gal(b1-4)GlcNAc
# Method in brief: as §1
# [8] = biological target: Gal(a1-3)Gal(b1-4)GlcNAc(b1-3)GalNAc
# Method in brief: as §1
# [9] = biological target: Gal(a1-3)Gal(b1-4)[Fuc(a1-3)]GlcNAc
# Method in brief: as §1
# [10] = biological target: Gal(a1-3)Gal(b1-4)[Fuc(a1-3)]GlcNAc(b1-2)Man(a1-3)[Gal(a1-3)Gal(b1-4)[Fuc(a1-3)]GlcNAc(b1-2)Man(a1-6)]Man(b1-4)GlcNAc(b1-4)GlcNAc
# Method in brief: as §1
# Gal(a1-3)GalNAc = biological target: Gal(a1-3)GalNAc
# Method in brief: as §1
# [11] = biological target: Gal(a1-3)[Gal(a1-4)]Gal(b1-4)GlcNAc
# Method in brief: as §1
# [12] = biological target: Gal(a1-4)Gal(b1-3)GlcNAc(b1-2)Man(a1-3)[Gal(a1-4)Gal(b1-3)GlcNAc(b1-2)Man(a1-6)]Man(b1-4)GlcNAc(b1-4)GlcNAc
# Method in brief: as §1
# Gal(a1-4)Gal(b1-4)Glc = biological target: Gal(a1-4)Gal(b1-4)Glc
# Method in brief: as §1
# Gal(a1-4)Gal(b1-4)GlcNAc = biological target: Gal(a1-4)Gal(b1-4)GlcNAc
# Method in brief: as §1
# [13] = biological target: Gal(a1-4)Gal(b1-4)GlcNAc(b1-2)Man(a1-3)[Gal(a1-4)Gal(b1-4)GlcNAc(b1-2)Man(a1-6)]Man(b1-4)GlcNAc(b1-4)GlcNAc
# Method in brief: as §1
# [14] = biological target: Gal(a1-4)Gal(b1-4)GlcNAc(b1-3)Gal(b1-4)Glc
# Method in brief: as §1
# Gal(a1-4)GlcNAc = biological target: Gal(a1-4)GlcNAc
# Method in brief: as §1
# Gal(a1-6)Glc = biological target: Gal(a1-6)Glc
# Method in brief: as §1
# Gal(b1-2)Gal = biological target: Gal(b1-2)Gal
# Method in brief: as §1
# Gal(b1-3)Gal = biological target: Gal(b1-3)Gal
# Method in brief: as §1
# Gal(b1-3)Gal(b1-4)GlcNAc = biological target: Gal(b1-3)Gal(b1-4)GlcNAc
# Method in brief: as §1
# [15] = biological target: Gal(b1-3)Gal(b1-4)GlcNAc(b1-2)Man(a1-3)[Gal(b1-3)Gal(b1-4)GlcNAc(b1-2)Man(a1-6)]Man(b1-4)GlcNAc(b1-4)GlcNAc
# Method in brief: as §1
# Gal(b1-3)GalNAc = biological target: Gal(b1-3)GalNAc
# Method in brief: as §1
# [16] = biological target: Gal(b1-3)GalNAc(a1-3)[Fuc(a1-2)]Gal(b1-4)Glc
# Method in brief: as §1
# [17] = biological target: Gal(b1-3)GalNAc(a1-3)[Fuc(a1-2)]Gal(b1-4)GlcNAc
# Method in brief: as §1
# [18] = biological target: Gal(b1-3)GalNAc(b1-3)Gal(a1-4)Gal(b1-4)Glc
# Method in brief: as §1
# [19] = biological target: Gal(b1-3)GalNAc(b1-4)Gal(b1-4)Glc
# Method in brief: as §1
# [20] = biological target: Gal(b1-3)GalNAc(b1-4)[Neu5Ac(a2-3)]Gal(b1-4)Glc
# Method in brief: as §1
# Gal(b1-3)GlcNAc = biological target: Gal(b1-3)GlcNAc
# Method in brief: as §1
# [21] = biological target: Gal(b1-3)GlcNAc(a1-6)Gal(b1-4)GlcNAc
# Method in brief: as §1
# [22] = biological target: Gal(b1-3)GlcNAc(b1-2)Man(a1-3)[Gal(b1-3)GlcNAc(b1-2)Man(a1-6)]Man(b1-4)GlcNAc(b1-4)GlcNAc
# Method in brief: as §1
# [23] = biological target: Gal(b1-3)GlcNAc(b1-2)Man(a1-3)[Gal(b1-3)GlcNAc(b1-2)Man(a1-6)]Man(b1-4)GlcNAc(b1-4)[Fuc(a1-6)]GlcNAc
# Method in brief: as §1
# [24] = biological target: Gal(b1-3)GlcNAc(b1-2)[Gal(b1-3)GlcNAc(b1-6)]Man(a1-6)[Gal(b1-3)GlcNAc(b1-2)Man(a1-3)]Man(b1-4)GlcNAc(b1-4)GlcNAc
# Method in brief: as §1
# [25] = biological target: Gal(b1-3)GlcNAc(b1-3)Gal(b1-3)GlcNAc
# Method in brief: as §1
# [26] = biological target: Gal(b1-3)GlcNAc(b1-3)Gal(b1-4)Glc
# Method in brief: as §1
# [27] = biological target: Gal(b1-3)GlcNAc(b1-3)Gal(b1-4)GlcNAc
# Method in brief: as §1
# [28] = biological target: Gal(b1-3)GlcNAc(b1-3)Gal(b1-4)GlcNAc(b1-6)[Gal(b1-3)GlcNAc(b1-3)]Gal(b1-4)Glc
# Method in brief: as §1
binder,measurement,setting,value
B1,glycan array binding signal (z-score),[1],0.199
same,glycan array binding signal (z-score),[2],-0.066
same,glycan array binding signal (z-score),[3],-0.271
same,glycan array binding signal (z-score),[4],-0.173
same,glycan array binding signal (z-score),Fuc(a1-4)GlcNAc,-0.012
same,glycan array binding signal (z-score),Fuc(b1-3)GlcNAc,-0.522
same,glycan array binding signal (z-score),Gal(a1-2)Gal,-0.059
same,glycan array binding signal (z-score),Gal(a1-3)Gal,-0.286
same,glycan array binding signal (z-score),Gal(a1-3)Gal(b1-3)GlcNAc,-0.168
same,glycan array binding signal (z-score),[5],0.082
same,glycan array binding signal (z-score),[6],0.146
same,glycan array binding signal (z-score),[7],0.336
same,glycan array binding signal (z-score),Gal(a1-3)Gal(b1-4)Glc,-0.137
same,glycan array binding signal (z-score),Gal(a1-3)Gal(b1-4)GlcNAc,-0.21
same,glycan array binding signal (z-score),[8],-0.494
same,glycan array binding signal (z-score),[9],-0.137
same,glycan array binding signal (z-score),[10],0.339
same,glycan array binding signal (z-score),Gal(a1-3)GalNAc,0.043
same,glycan array binding signal (z-score),[11],-0.158
same,glycan array binding signal (z-score),[12],0.14
same,glycan array binding signal (z-score),Gal(a1-4)Gal(b1-4)Glc,-0.074
same,glycan array binding signal (z-score),Gal(a1-4)Gal(b1-4)GlcNAc,-0.051
same,glycan array binding signal (z-score),[13],-0.3
same,glycan array binding signal (z-score),[14],-0.076
same,glycan array binding signal (z-score),Gal(a1-4)GlcNAc,0.138
same,glycan array binding signal (z-score),Gal(a1-6)Glc,0.049
same,glycan array binding signal (z-score),Gal(b1-2)Gal,0.196
same,glycan array binding signal (z-score),Gal(b1-3)Gal,0.241
same,glycan array binding signal (z-score),Gal(b1-3)Gal(b1-4)GlcNAc,-0.367
same,glycan array binding signal (z-score),[15],-0.077
same,glycan array binding signal (z-score),Gal(b1-3)GalNAc,0.058
same,glycan array binding signal (z-score),[16],0.194
same,glycan array binding signal (z-score),[17],0.127
same,glycan array binding signal (z-score),[18],-0.368
same,glycan array binding signal (z-score),[19],0.024
same,glycan array binding signal (z-score),[20],0.025
same,glycan array binding signal (z-score),Gal(b1-3)GlcNAc,-0.152
same,glycan array binding signal (z-score),[21],-0.21
same,glycan array binding signal (z-score),[22],0.14
same,glycan array binding signal (z-score),[23],0.051
same,glycan array binding signal (z-score),[24],0.045
same,glycan array binding signal (z-score),[25],-0.188
same,glycan array binding signal (z-score),[26],-0.105
same,glycan array binding signal (z-score),[27],-0.254
same,glycan array binding signal (z-score),[28],-0.509
